Data as given in the supplement of paper PMC9151546.
Many values rest on one well or one pass, so single values are uncertain.

Tests used:
[1] = system: CHO-K1; experiment: relative survival (nuclei to bead ratio vs DMSO control) (% of vehicle control); higher = more surviving cells
Method: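 Flow-cytometric in vitro micronucleus assay (Litron MicroFlow) in CHO-K1 cells in 96-well plates, 19 concentrations (4.5-200 µM, n=1 per concentration). Without S9, cells were exposed for 24 h and sampled at 48 h. With Aroclor 1254-induced rat liver S9, cells were exposed for 3-4 h and sampled at 27-28 h. Read-outs are %MN and %hypodiploid nuclei relative to nucleated events, and relative survival as the nuclei-to-bead ratio versus the 1% DMSO vehicle control (x100).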

[2] = system: CHO-K1; experiment: micronucleus frequency (% of nucleated events); higher = more micronuclei (genotoxic)
[3] = system: CHO-K1; experiment: hypodiploid nuclei frequency (% of nucleated events); higher = more hypodiploid events (aneugenic)
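Throughout, for hypodiploid nuclei frequency (% of nucleated events): hypodiploid nuclei gated on a flow cytometer with 488 nm excitation after SYTOX Green staining, cultures at 37 °C, positive controls vinblastine without S9 and cyclophosphamide with S9.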
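Throughout, for micronucleus frequency (% of nucleated events): cells lysed with nuclei stained by SYTOX Green, then micronucleus-gated events counted against nucleated events by flow cytometry with 488 nm excitation.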
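Throughout, for relative survival (nuclei to bead ratio vs DMSO control): Lysed-cell nuclei stained with SYTOX Green and counted against counting beads by flow cytometry at 488 nm excitation, with vinblastine (no S9) and cyclophosphamide (plus S9) as positive controls.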

CCCC(=O)O [Butanoic acid]
Settings | hypodiploid nuclei frequency, [3] [%] | micronucleus frequency, [2] [%] | relative survival, [1]
concentration: 4.5 (µM), S9 metabolic activation: with S9, exposure time: 3-4 hours | 0.24 | 1.9 | 142
concentration: 4.5 (µM), S9 metabolic activation: without S9, exposure time: 24 hours | 0.54 | 1.68 | 108
concentration: 5.63 (µM), S9 metabolic activation: with S9, exposure time: 3-4 hours | 0.24 | 1.58 | 173
concentration: 5.63 (µM), S9 metabolic activation: without S9, exposure time: 24 hours | 0.62 | 1.72 | 89.2
concentration: 7.04 (µM), S9 metabolic activation: with S9, exposure time: 3-4 hours | 0.26 | 0.86 | 153
concentration: 7.04 (µM), S9 metabolic activation: without S9, exposure time: 24 hours | 0.76 | 1.84 | 91.7
concentration: 8.8 (µM), S9 metabolic activation: with S9, exposure time: 3-4 hours | 0.16 | 1.52 | 164
concentration: 8.8 (µM), S9 metabolic activation: without S9, exposure time: 24 hours | 0.36 | 2.08 | 138
concentration: 11 (µM), S9 metabolic activation: with S9, exposure time: 3-4 hours | 0.28 | 1.08 | 126
concentration: 11 (µM), S9 metabolic activation: without S9, exposure time: 24 hours | 0.52 | 1.52 | 108
concentration: 13.7 (µM), S9 metabolic activation: with S9, exposure time: 3-4 hours | 0.22 | 1.06 | 128
concentration: 13.7 (µM), S9 metabolic activation: without S9, exposure time: 24 hours | 0.64 | 1.44 | 114
concentration: 17.2 (µM), S9 metabolic activation: with S9, exposure time: 3-4 hours | 0.16 | 1.22 | 135
concentration: 17.2 (µM), S9 metabolic activation: without S9, exposure time: 24 hours | 0.36 | 1.48 | 102
concentration: 21.5 (µM), S9 metabolic activation: with S9, exposure time: 3-4 hours | 0.3 | 1.16 | 133
concentration: 21.5 (µM), S9 metabolic activation: without S9, exposure time: 24 hours | 0.52 | 1.08 | 123
concentration: 26.8 (µM), S9 metabolic activation: with S9, exposure time: 3-4 hours | 0.12 | 1.64 | 154
concentration: 26.8 (µM), S9 metabolic activation: without S9, exposure time: 24 hours | 0.42 | 1.54 | 142
concentration: 33.6 (µM), S9 metabolic activation: with S9, exposure time: 3-4 hours | 0.18 | 1.16 | 130
concentration: 33.6 (µM), S9 metabolic activation: without S9, exposure time: 24 hours | 0.56 | 1.9 | 112
concentration: 41.9 (µM), S9 metabolic activation: with S9, exposure time: 3-4 hours | 0.3 | 0.88 | 120
concentration: 41.9 (µM), S9 metabolic activation: without S9, exposure time: 24 hours | 0.46 | 1.26 | 119
concentration: 52.4 (µM), S9 metabolic activation: with S9, exposure time: 3-4 hours | 0.26 | 1.1 | 144
concentration: 52.4 (µM), S9 metabolic activation: without S9, exposure time: 24 hours | 0.7 | 1.34 | 119
concentration: 65.5 (µM), S9 metabolic activation: with S9, exposure time: 3-4 hours | 0.2 | 0.96 | 150
concentration: 65.5 (µM), S9 metabolic activation: without S9, exposure time: 24 hours | 0.38 | 1.26 | 109
concentration: 81.9 (µM), S9 metabolic activation: with S9, exposure time: 3-4 hours | 0.24 | 1.04 | 155
concentration: 81.9 (µM), S9 metabolic activation: without S9, exposure time: 24 hours | 0.52 | 1.3 | 152
concentration: 102 (µM), S9 metabolic activation: with S9, exposure time: 3-4 hours | 0.28 | 1.24 | 149
concentration: 102 (µM), S9 metabolic activation: without S9, exposure time: 24 hours | 0.62 | 1.46 | 117
concentration: 128 (µM), S9 metabolic activation: with S9, exposure time: 3-4 hours | 0.18 | 0.96 | 140
concentration: 128 (µM), S9 metabolic activation: without S9, exposure time: 24 hours | 0.66 | 1.42 | 113
concentration: 160 (µM), S9 metabolic activation: with S9, exposure time: 3-4 hours | 0.2 | 0.94 | 147
concentration: 160 (µM), S9 metabolic activation: without S9, exposure time: 24 hours | 0.6 | 1.38 | 106
concentration: 200 (µM), S9 metabolic activation: with S9, exposure time: 3-4 hours | 0.16 | 1.1 | 118
concentration: 200 (µM), S9 metabolic activation: without S9, exposure time: 24 hours | 0.86 | 2.1 | 101

CC/C(=C(/CC)c1ccc(O)cc1)c1ccc(O)cc1 [Diethylstilbestrol]
Settings | hypodiploid nuclei frequency, [3] [%] | micronucleus frequency, [2] [%] | relative survival, [1]
concentration: 4.5 (µM), S9 metabolic activation: with S9, exposure time: 3-4 hours | 0.16 | 1.32 | 84.3
concentration: 4.5 (µM), S9 metabolic activation: without S9, exposure time: 24 hours | 1.06 | 1.6 | 81.1
concentration: 5.63 (µM), S9 metabolic activation: with S9, exposure time: 3-4 hours | 0.1 | 1.06 | 89.1
concentration: 5.63 (µM), S9 metabolic activation: without S9, exposure time: 24 hours | 1.18 | 1.54 | 106
concentration: 7.04 (µM), S9 metabolic activation: with S9, exposure time: 3-4 hours | 0.22 | 1.02 | 66.3
concentration: 7.04 (µM), S9 metabolic activation: without S9, exposure time: 24 hours | 1.92 | 1.8 | 91.9
concentration: 8.8 (µM), S9 metabolic activation: with S9, exposure time: 3-4 hours | 0.26 | 1.36 | 78.1
concentration: 8.8 (µM), S9 metabolic activation: without S9, exposure time: 24 hours | 3.88 | 2.28 | 101
concentration: 11 (µM), S9 metabolic activation: with S9, exposure time: 3-4 hours | 0.2 | 1.3 | 90.6
concentration: 11 (µM), S9 metabolic activation: without S9, exposure time: 24 hours | 10.1 | 4.76 | 86.4
concentration: 13.7 (µM), S9 metabolic activation: with S9, exposure time: 3-4 hours | 0.16 | 1.52 | 82.6
concentration: 13.7 (µM), S9 metabolic activation: without S9, exposure time: 24 hours | 21.5 | 9.72 | 88.7
concentration: 17.2 (µM), S9 metabolic activation: with S9, exposure time: 3-4 hours | 0.2 | 1 | 82.2
concentration: 17.2 (µM), S9 metabolic activation: without S9, exposure time: 24 hours | 24.4 | 13.5 | 52.5
concentration: 21.5 (µM), S9 metabolic activation: with S9, exposure time: 3-4 hours | 0.38 | 1.48 | 115
concentration: 21.5 (µM), S9 metabolic activation: without S9, exposure time: 24 hours | – | – | 23.2
concentration: 26.8 (µM), S9 metabolic activation: with S9, exposure time: 3-4 hours | 0.16 | 0.94 | 70.7
concentration: 26.8 (µM), S9 metabolic activation: without S9, exposure time: 24 hours | – | – | 17.9
concentration: 33.6 (µM), S9 metabolic activation: with S9, exposure time: 3-4 hours | 0.18 | 1.42 | 60.5
concentration: 33.6 (µM), S9 metabolic activation: without S9, exposure time: 24 hours | – | – | 17.2
concentration: 41.9 (µM), S9 metabolic activation: with S9, exposure time: 3-4 hours | 0.28 | 1.16 | 80.8
concentration: 41.9 (µM), S9 metabolic activation: without S9, exposure time: 24 hours | – | – | 15.1
concentration: 52.4 (µM), S9 metabolic activation: with S9, exposure time: 3-4 hours | 0.18 | 1.12 | 54.1
concentration: 52.4 (µM), S9 metabolic activation: without S9, exposure time: 24 hours | – | – | 25.8
concentration: 65.5 (µM), S9 metabolic activation: with S9, exposure time: 3-4 hours | – | – | 35.6
concentration: 65.5 (µM), S9 metabolic activation: without S9, exposure time: 24 hours | – | – | 30.7
concentration: 81.9 (µM), S9 metabolic activation: with S9, exposure time: 3-4 hours | – | – | 12.1
concentration: 81.9 (µM), S9 metabolic activation: without S9, exposure time: 24 hours | – | – | 30.9
concentration: 102 (µM), S9 metabolic activation: without S9, exposure time: 24 hours | – | – | 38.2
concentration: 128 (µM), S9 metabolic activation: without S9, exposure time: 24 hours | – | – | 28.2
concentration: 160 (µM), S9 metabolic activation: without S9, exposure time: 24 hours | – | – | 0.13
concentration: 200 (µM), S9 metabolic activation: with S9, exposure time: 3-4 hours | – | – | 0.06
concentration: 200 (µM), S9 metabolic activation: without S9, exposure time: 24 hours | – | – | 0.12
